Data: patent publication US20180195054A1 (Stanford University, published 2018)

Molecular target: T1, biotinylated CD47 IgSF domain (human CD47 residues 19-135 / residues 1-117, C15G) (human, UniProt Q08722 in part, biotinylated with BirA ligase at the C-terminal biotin acceptor peptide tag)
T1 construct: range 19-135; Captured on a Biacore SA chip for SPR; C15G is counted on the mature domain (1-117), not on the precursor; also called immobilized CD47
Experiment: SPR (Biacore T100, 25 C), biotinylated CD47 captured on SA chip, SIRPα variant in solution, 1:1 Langmuir model
Method: SPR experiments were conducted on a Biacore T100 instrument at 25° C. Experiments used a Biacore SA sensor chip (GE Healthcare) to capture biotinylated CD47 at a surface density of approximately 150 RU. An unrelated biotinylated protein was immobilized as a reference surface for the SA sensor chip with matching RU to the experimental surface. Serial dilutions of unbiotinylated SIRPα variants in the running buffer [1×HBS-P (GE Healthcare)] were flowed over the chip at a rate of 50 μL/min. CD47 was regenerated using three 30 second injections of 2M MgCl₂. Data was analyzed using the Biacore T100 evaluation software version 2.0 with a 1:1 Langmuir binding model.
Experiments were conducted with a Biacore T100 at 25° C. Protein concentrations were quantified by 280 nm absorbance with a Nanodrop2000 spectrometer (Thermo Scientific). A Biacore SA sensor chip (GE Healthcare) was used to capture biotinylated CD47 (Rₘₐₓ ˜150 RU). An unrelated biotinylated protein was immobilized with an RU value matching that of the […] to control for nonspecific binding. Measurements were made with serial dilutions of the SIRPα variants in HBS-P+ buffer (GE Healthcare). The CD47 surface was regenerated by three 60 second injections of 2 M MgCl₂. All data were analyzed with the Biacore T100 evaluation software version 2.0 with a 1:1 Langmuir binding model.

T1 sequence (Q08722 other isoform, or with tags, fused parts or gaps C15G C15G limits assumed): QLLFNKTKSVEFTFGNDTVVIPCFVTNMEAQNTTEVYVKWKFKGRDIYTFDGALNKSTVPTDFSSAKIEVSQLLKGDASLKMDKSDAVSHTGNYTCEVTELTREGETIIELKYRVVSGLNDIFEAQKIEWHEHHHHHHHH

B1: wild-type SIRPα allele 1 d1 domain monomer (receptor)
chain: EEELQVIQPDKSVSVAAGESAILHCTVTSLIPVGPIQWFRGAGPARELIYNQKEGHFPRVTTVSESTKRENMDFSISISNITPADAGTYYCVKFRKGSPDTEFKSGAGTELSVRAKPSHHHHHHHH
notes: also called WTa1; WTa1 mono
- Kd: 279 nM
